Results taken from PubChem BioAssay AID686978 (National Center for Advancing Translational Sciences (NCATS), 2013).
In all, about 420,000 compounds went through this assay and about 64,000 (15%) were called active. Inconclusive means that the source gave no clear call. Such entries were picked first, then a sample of the others. Calls follow the shape of the dose curve; as a rule, active = well fitted inhibition curve with a large enough effect; inconclusive = small, poorly fitted or top-dose-only effect; inactive = flat fitted curve, though single readings scatter. Potencies of inconclusive entries are left out as doubtful fits.

Experiment: qHTS for Inhibitors of human tyrosyl-DNA phosphodiesterase 1 (TDP1): qHTS in cells in absence of CPT; also: nearly all actives have a fitted effect of over 55% in size
Conditions: DT40 Tdp1-/- hTDP1 cells, no CPT, ATP luminescence, 48 h; activity change, negative = growth inhibition: at 46.2 µM (top of the series) unless noted
Method in brief: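 Luminescent ATP content (CellTiter-Glo) served as the growth readout. Knockout chicken DT40 cells expressing human TDP1 were exposed to compounds without camptothecin for a minimum 48 hr at 37 °C.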
% is scaled to controls: 0 for no effect and ±100 for the full control effect; potency is read from the fitted curve at half-maximal effect; tags tell the direction and shape of the fitted curve.

Row | Structure (SMILES) | Potency | activity change, negative = growth inhibition
1 | O=C1/C(=C/c2ccncc2)Oc2cc(OS(=O)(=O)c3ccccc3)ccc21 | active: 11.6 µM | –
2 | Cc1ccc(C(=O)NN2C(=O)c3ccc(S(=O)(=O)c4ccc(C(=O)O)cc4)cc3C2=O)cc1 | inconclusive [inhibitor, single point] | –
3 | O=S1(=O)N=C(N/N=C/c2ccc(Br)o2)c2ccccc21 | inactive | –
4 | CCOC(=O)[C@]12CCC=C1N(Cc1ccc3c(c1)OCO3)C(=O)[C@H](CC(=O)NCc1cccc3ccccc13)C2 | inconclusive [inhibitor, single point] | –
5 | CN(C(=O)COC(=O)/C=C/c1ccc(F)cc1)c1c(N)n(Cc2ccccc2)c(=O)[nH]c1=O | inconclusive [inhibitor, partial curve] | –
6 | Cc1ccc(/C=C2\C(=O)NC(=O)N2C)o1 | inactive | –
7 | CN1CCN(c2ccccc2NC(=O)C(Cc2ccccc2)n2cccc2)CC1 (stereo unspecified) | inconclusive [inhibitor, single point] | –
8 | Cc1ccc(NC(=O)CCCNC(=O)c2ccc(Cl)cc2)c(O)c1 | inactive | –
9 | COc1ccc(O)c(C(=O)CC(=O)c2cccnc2)c1 | inconclusive [inhibitor, single point] | –
10 | NS(=O)(=O)c1ccc(NC(=O)c2cc(-c3cc(Cl)ccc3O)n[nH]2)cc1 | inconclusive [inhibitor, single point] | –
11 | O=C(CCCSc1ccc(Cl)cc1)Nc1ccccc1O | inconclusive [inhibitor, single point] | –
12 | Cc1ccccc1NC(=O)C(C)O/N=C/c1cccc([N+](=O)[O-])c1 (stereo unspecified) | inconclusive [inhibitor, single point] | –
13 | COc1ccnc(CS(=O)c2nc3cc(C(O)(F)F)ccc3[nH]2)c1OC (stereo unspecified) | inconclusive [inhibitor, single point] | –
14 | N/C(=N\OC(=O)c1ccoc1)c1ccc(Br)cc1 | inactive | –
15 | CCC1CN(CCNC(=O)c2scc3c2OCCO3)Cc2cc(OC)ccc2O1 (stereo unspecified) | inconclusive [inhibitor, partial curve] | –
16 | CN(C(=O)CSc1nnn(C)n1)c1ccccc1 | inactive | –
17 | CCOC(=O)c1c(NC(=O)C(C)Sc2cn(C)c3ccccc23)sc2c1CCC2 (stereo unspecified) | inconclusive [inhibitor, single point] | –
18 | O=C(CC(=O)c1ccccc1)CS(=O)(=O)c1ccccc1 | inconclusive [inhibitor, single point] | –
19 | C/C(=C(/CCO)SSCC1CCCO1)N(C=O)Cc1cnc(C)nc1N (stereo unspecified) | active: 21.1 µM | –
20 | COc1cc(C(=O)NC2CCCc3ccccc32)cc(OC)c1OC (stereo unspecified) | inactive | –
21 | CCN1CCN(c2ccc(S(=O)(=O)N3CCCCC3)cc2NC(=O)c2ccc(C)c(C)c2)CC1 | active: 23.1 µM | –
22 | COc1ccc(C(=O)Nc2ccccc2C(=O)Nc2cccnc2)cc1 | inconclusive [inhibitor, single point] | –
23 | CC[C@@H]1C=C(C(=O)O)[C@H](c2ccc(OC)c(OC)c2)N1S(=O)(=O)c1ccc(C)cc1 | inactive | –
24 | Cc1csc(SCC(=O)N2CCOc3ccc(C(O)C4CCCCC4)cc3C2)n1 (stereo unspecified) | active: 20.6 µM | –

Row | Structure (SMILES) | Potency | activity change, negative = growth inhibition
25 | CN(c1cc2c(c3c1ccn3C)C1CCC2C1)C1CCCCC1 (stereo unspecified) | inconclusive [inhibitor, single point] | –
26 | NCCCN(Cc1ccccc1)c1ccc(Br)cn1 | inconclusive [inhibitor, single point] | –
27 | CC(=O)NCCNc1ncncc1-c1ccccc1C(F)(F)F | inactive | –
28 | CCOc1ccc(/C=N/NC(=O)C(C)N(c2ccc(OC)cc2)S(C)(=O)=O)cc1OCC (stereo unspecified) | inconclusive [inhibitor, single point] | –
29 | COc1cc(/C=C2/SC(=S)N(Cc3ccccc3)C2=O)cc(Cl)c1O | active: 13 µM | –
30 | CCC(C(=O)NCc1ccccc1)n1c(-c2ccc3c(c2)CCO3)nc2ccccc21 (stereo unspecified) | inconclusive [inhibitor, single point] | –
31 | Cc1cc(N2CCOCC2)n2ncc(-c3ccccc3)c2n1 | inconclusive [inhibitor, single point] | –
32 | COc1ccccc1CNc1nc(NCCOc2ccccc2Cl)c2sccc2n1 | active: 11.6 µM | –
33 | CC(C)c1ccc(NC(=O)CSC2=Nc3ccccc3C3=NC(CC(=O)NC4CCCCC4)C(=O)N23)cc1 (stereo unspecified) | active: 20.6 µM | –
34 | COCc1cc(=O)n2[nH]cc(-c3ccsc3)c2n1 | inconclusive [inhibitor, single point] | –
35 | COC(=O)c1[nH]c2cccc(Cl)c2c1NC(=O)CN(C)C1CCCCC1 | inconclusive [inhibitor, single point] | –
36 | Cc1ccccc1NCCNc1ccccc1C | inactive | –
37 | CS/C(=N\S(=O)(=O)c1ccc(F)cc1)c1ccccc1 | inconclusive [inhibitor, single point] | –
38 | COc1ccc(-n2nc3c(c2NC(=O)CCl)CSC3)cc1 | active: 2.31 µM | –
39 | COc1ccc(-c2nc3ccccc3n3c(-c4ccccc4)c4c(=O)n(C)c(=O)n(C)c4c23)cc1 | inactive | –
40 | COC(=O)[C@@]12C[C@@H](CC(=O)N3CCC(c4ccccc4)CC3)C(=O)N(Cc3cccc4ccccc34)C1=CCC(C)(C)C2 | inconclusive [inhibitor, single point] | –
41 | Cc1ccc(NC(=O)COC(=O)c2ccc3c(c2)OCCO3)cc1S(=O)(=O)N1CCOCC1 | inconclusive [inhibitor, partial curve] | –
42 | COc1ccccc1Nc1cc(N2CCOCC2)c2nonc2c1[N+](=O)[O-] | inconclusive [inhibitor, single point] | –
43 | CCOc1ccc(NC(=S)N(CCc2c(C)[nH]c3ccc(C)cc23)Cc2cccnc2)cc1 | inconclusive [inhibitor, single point] | –
44 | Cc1cc(C(=O)Nc2sccc2C(N)=O)c(C)o1 | inconclusive [inhibitor, single point] | –
45 | Clc1ccc(N2CCN(Cc3ccco3)CC2)cc1 | inconclusive [inhibitor, partial curve] | –
46 | Clc1cccc(OCCCn2ccnc2)c1 | inactive | –
47 | O=C1c2cc3c(cc2CCC1c1ccc2c(c1)OCO2)OCO3 (stereo unspecified) | inconclusive [inhibitor, single point] | –
48 | Cc1ccc(S(=O)(=O)Nc2ccc(-c3nc4ccc(C)cc4s3)cc2)cc1 | inconclusive [inhibitor, partial curve, poor fit] | –

Row | Structure (SMILES) | Potency | activity change, negative = growth inhibition
49 | COc1ccc(N2CCN(Cc3nc4scc(-c5cccs5)c4c(=O)[nH]3)CC2)cc1 | inconclusive [inhibitor, single point] | –
50 | CC(C)COc1ccc(-c2cc(C(=O)NN)[nH]n2)cc1 | inconclusive [inhibitor, partial curve] | –
51 | COc1ccc(-c2c(C)nn3c(N4CCOCC4)cc(C)nc23)cc1OC | inactive | –
52 | COc1cc2c(cc1OC)CN(C(=O)CCCN1C(=O)c3ccccc3C1=O)CC2 | inactive | –
53 | C=CCSc1nnc(NC(=O)c2nc(SCC)ncc2Cl)s1 | inactive | –
54 | COc1ccccc1CNC(=O)CCCn1c(=O)c2ccccc2n(Cc2ccc(C)cc2)c1=O | inconclusive [inhibitor, single point] | –
55 | O[C@H]1CN(Cc2cccs2)[C@@H](c2ccc(Cl)cc2)C[C@@H]1n1cc(C2CC2)nn1 | inconclusive [inhibitor, single point] | –
56 | O=C(O)c1c2c(nc3ccccc13)CCCC2 | inactive | –
57 | C=C(C)COc1ccc(-c2nc(N)ncc2-c2ccccc2OC)c(O)c1 | inconclusive [inhibitor, partial curve] | –
58 | CCC(=O)NC(C)C(c1cccs1)N1CCOCC1 (stereo unspecified) | inactive | –
59 | CCN1CCN(S(=O)(=O)c2ccc(Cl)c(C(=O)Nc3nnc(C)s3)c2)CC1 | inactive | –
60 | CC(C)Cn1c(SC(C)C(=O)NCC2CCCO2)nc2ccc(Cl)cc2c1=O (stereo unspecified) | inconclusive [inhibitor, single point] | –
61 | CCOc1ccc(C(=O)C(CN2CCOCC2)c2ccccc2)cc1 (stereo unspecified) | active: 3.26 µM | –
62 | CN(c1ncc(C(F)(F)F)cc1Cl)n1cc(C(N)=O)c2ccccc2c1=O | inconclusive [inhibitor, partial curve, poor fit] | –
63 | O=C(Nc1cc(Br)ccc1F)c1nc[nH]c1C(=O)NCc1ccccc1 | inconclusive [inhibitor, single point] | –
64 | Cc1ccc(C(=O)N2CCC(C(N)=O)CC2)cc1NC(=O)c1nsc2ccccc12 | inconclusive [inhibitor, single point] | –
65 | CCc1ccc(C(=O)OCC(=O)c2c(N)n(CC(C)C)c(=O)n(C)c2=O)cc1 | inconclusive [inhibitor, partial curve] | –
66 | COc1cc(/C=N/Nc2ccnc(=O)[nH]2)ccc1O | inactive | –
67 | COc1cc(C(C(=O)NC2CCCC2)N(C(=O)c2snc(C(N)=O)c2N)c2ccccc2)cc(OC)c1OC (stereo unspecified) | – | inconclusive: -33.3% [inhibitor]
68 | CCC(C)(C)n1nnnc1C(c1ccncc1)N1CCC(C)CC1 (stereo unspecified) | inactive | –
69 | COC(=O)c1cccc(C23CC4(C2)[C@H](CN(Cc2cccnc2)[C@@H]4c2ccccc2)C3c2ccc(Cl)nc2)c1 (stereo partly specified) | inconclusive [inhibitor, single point] | –
70 | Cc1ccc(Sc2ccc(N3CCCC(C(=O)Nc4ccc(F)cc4F)C3)nn2)cc1 (stereo unspecified) | active: 18.4 µM | –
71 | CCOC(=O)c1c(C)oc2ccc(OC(=O)c3cccs3)cc12 | inconclusive [inhibitor, single point] | –
